B1: CPEB3 Ribozyme (parent)
chain: UAACAGGGGGCCACAGCAGAAGCGUUCACGUCGCAGCCCCUGUCAGAUUCUGGUGAAUCUGCGAAUUCUGCUGUAUAUCUC

Self-cleavage data for 34 variants are collected here from the RNAGym collection of RNA variant scans (doi:10.1093/nar/gkz1192).

Read counts are not given, so values of variants with three or more changes are uncertain.

The variants in the series derive from B1. In words: self-cleavage, relative activity (ratio to wild type); higher = more cleavage; in vitro, sequencing. The method, boiled down: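 CPEB3 self-cleaving ribozyme mutant libraries were made by rounds of error-prone PCR, barcoded, and transcribed in vitro with T7 RNA polymerase for 5 hours at 37°C. Cleavage occurred during transcription and a 15 min DNase I step before EDTA stop. RNAs were reverse transcribed with template switching and Illumina-sequenced, with DNA sequencing mapping barcodes to variants. Relative activity is the variant's cleaved/total read fraction divided by wild type's (minimum 5 reads), averaged across three batches.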
Consider UAACAGGGGGCCACAGCAGAAGUGUUCACGUCGCAGCCCCUGUCAGACUCCGGUGAAUCUGCGAAUUCUGGUGUAUAUCUG [C23U U48C U51C C71G C81G], for which the self-cleavage stood at 0.13.
As for UAACAGGGGGCCACAGCAGAAGUGUUCACGUCGCAGCCCCUGUCAGAUUCAGGUGAGUCUGCGAAAUCUGCUGUAUAUCUC [C23U U51A A57G U66A], the figure is 0.04; as for UAACAGGGGGCCACAGCAGAAGCAUUCGCGUCGCAGCCCCUGUCAGAUUCUGGUGAAUCUGCGAACUCUGCUGUAUAUCCC [G24A A28G U66C U80C], 0.11; as for UAACAGGGGGCCACAGCAGAAGCAUUCACGUCGCGGCCCCUGUCAGAUUCUGGAGCACCUGCGAAUUCUGCUGUAUAUCUC [G24A A35G U54A A56C U58C], 0.09.
In the case of UAACAGGGGGCCACAGCAGAAGCAUUCACGUCGCAGCCCCUGUCAGUUUCUGGUGAAUCAGCGAAAUCUGCUGUAUAUCUC [G24A A47U U60A U66A], the self-cleavage turned out to be 0.
Take UAACAGGGGGCCACAGCAGAAGCACUCACGUCACAGCCCCUGUCAGAUCCUGGUGAAUCAGCGAGCUCUGCUGUAUAUCUC [G24A U25C G33A U49C U60A A65G U66C]: the self-cleavage was 0.07.
The value for UAACAGGGGGCCACAGCAGAAGCACUCACGUCGCAGCCCCUGUCAGAUUCUGGUGUAUCUGCGAAUUCUGCUGUAUAUCUC [G24A U25C A56U] was 0.22; that for UAACAGGGGGCCACAGCAGAAGUGUUCACGUCGCAGCCCCUGUCAGAUUCUGGUGAAUCUGCGAAUUCUGCAGCAUAUCUC [C23U U72A U74C] was 0.2.
The value for UAACAGGGGGCCACAGCAGAAGCAUUCACGUAGCAGCCCCUGUCAGAUUCUGGUGGAUCUGCGAAUUCUGCUGCAUAUCUC [G24A C32A A56G U74C] was 0.15.
As for UAACAGGGGGCCACAGCAGAAGCACUCACGUCGCAGCCCCUGUCAGAUUCUGGUGAAUCAGCGAAUUCUGCUGUUUAUCUC [G24A U25C U60A A75U], the figure is 0.08.
Consider UAACAGGGGGCCACAGCAGAAGCAUUCACGUCGCGGCCCCCGUCAGAUUCUGGAGAAUCAGCGAAUUCUGCUGUAUAUCUC [G24A A35G U41C U54A U60A], for which the self-cleavage was 0.19.
In the case of UAACAGGGGGCCACAGCAGAAGCAUACACGUCGCAGCCCCUGUCAGAUUCUGGUGAAUCUGCGAAUCCUGCUGUAUACCUC [G24A U26A U67C U78C], the self-cleavage stood at 0.08.
As for UAACAGGGGGCCACAGCAGAAGCAUUCUCGUCGCAGCCCCUGUCAGAUUCUGGUGAAUCAGCGAAUUCUGCUGUAUAUCUC [G24A A28U U60A], the figure is 0.07; as for UAACAGGGGGCCACAGCAGAAGCAUCCACGUCGCAGCCCCUGUCAGAUUCUGGUGAUUCUGCGAAUUCUGCUGUAUAUCUC [G24A U26C A57U], 0.08.
UAACAGGGGGCCACAGCAGAAGCAUUCACGUCGCAGCCCCUGUCAGAUUCUGGUGAGUCUGCGAAUUCAGCUGUAUAUCUC [G24A A57G U69A]: the self-cleavage came to 0.23.
In the case of UAACAGGGGGCCACAGCAGAAGCAGUCACGUCGCAGCCCCUGUCAGAUUCUGGUGAAUCUGCGAAUUCUGCUGUAUACCUC [G24A U25G U78C], the self-cleavage was determined as 0.21.
For the variant UAACAGGGGGCCACAGCAGAAGCAUUCACGUCGCAGCUCCUGUCAGAUUCCGGUGAAUCUGCGAAUCCUGCUGUAUAUCUC [G24A C38U U51C U67C], the self-cleavage came to 0.07.
For the variant UAACAGGGGGCCACAGCAGAAGCAUUCACGUCGCUGCCCCUGUCAGAUUCUGGUGAAUCUGCGAAUUCUGCUGUGUAUCUC [G24A A35U A75G], the self-cleavage was 0.14.
On to UAACAGGGGGCCACAGCAGAAGCAAUCACGUCGCAGCCGCUGUCAGAUUCUGGUGAAUCUGCGAAUUCUGCUGGAUAUCUC [G24A U25A C39G U74G], for which the self-cleavage worked out at 0.2.
As for UAACAGGGGGCCACAGCAGAAGCACCCACGUCGCAGCCGCUGUCAGAUCCUGGUGAAUCUGCGUAUUCUGCUGUAUAUCUC [G24A U25C U26C C39G U49C A64U], the figure is 0.06; as for UAACAGGGGGCCACAGCAGAAGCAUCCACGUCGCAGCCCCUGUCAGAUUCAGGUGAAUCUGCGAAUCCUGCUGUAUAACUC [G24A U26C U51A U67C U78A], 0.06.
UAACAGGGGGCCACAGCAGAAGUGUUCACGUCGCAGCCCCUGCCAGAUUCUGGUGAAUCUGUGAAUUCUGCUGUAUAUCUC [C23U U43C C62U]: the self-cleavage was found to be 0.2.
As for UAACAGGGGGCCACAGCAGAAGCAUUCACGUCGCAGCCCCUGUCAGAUUCUGGUAAAUCUGCGAAUUCUGCUGUAUAUCCC [G24A G55A U80C], the figure is 0.32.
In the case of UAACAGGGGGCCACAGCAGAAGCAUUCACGUCGCAGCCCCUGUCAGAUUCUGGUGAAUCUGUGAAUUCUGCUGUAUACCUC [G24A C62U U78C], the self-cleavage was found to be 0.11.
In the case of UAACAGGGGGCCACAGCAGAAGCAUCCACGUCGCGGCCCCUGUCGGAUUCUGGUGAAUCUGCGAAUUCUGCUGUAUAUCUC [G24A U26C A35G A45G], the self-cleavage was 0.21.
UAACAGGGGGCCACAGCAGAAGCACUCACGUCGCAGCCCCUGUCAGAUUCUGGUGAAUCUGCGAAUUCAGCUGUAUACCUC [G24A U25C U69A U78C]: the self-cleavage came out at 0.18.
As for UAACAGGGGGCCACAGCAGAAGCAUACACGUCGCAGCCCCCGUCAGAUUCUGGUGAAUCUGCGAAUUCUGCUGUAUAUCUC [G24A U26A U41C], the figure is 0.17; as for UAACAGGGGGCCACAGCAGAAGCAUUCGCGUCGCAGCCCCUGUCGGAUUCUGAUGAAUCUGCGAAUUCUGCUGUAUAUCUC [G24A A28G A45G G53A], 0.17.
As for UAACAGGGGGCCACAGCAGAAGCAUUCACGCCGCAGCCCCUGUCAGAUUCUGGUGGAUCUGCGAAUUCUGCUGUAUAUCUC [G24A U31C A56G], the figure is 0.17; as for UAACAGGGGGCCACAGCAGAAGCAUUCGCGUCGCAGCCCCUGUCAGAUUCUGGUGAAUCUGCGAAUUCUGCUGUAUUUCUC [G24A A28G A77U], 0.02.
As for UAACAGGGGGCCACAGCAGAAGUGUUCACGUCGCAGCCCCUGUCAGAUUCAGGUGAAUCUGCGAAUCCUGCUGUAUAUCUC [C23U U51A U67C], the figure is 0.12.
As for UAACAGGGGGCCACAGCAGAAGCAUUCAUGUCGCGGCCCAUGUCAGAUUCUGGUGAAUCUGCGAAUCCUGCUGUAUAUCUC [G24A C29U A35G C40A U67C], the self-cleavage was 0.07.
UAACAGGGGGCCACAGCAGAAGCAUUCGCGUCGCAGCCCCCGUCAGAUUCUGGUGAAUCUGCGAAUUCUGCUGUAUAUCUC [G24A A28G U41C]: the self-cleavage turned out to be 0.13.
As for UAACAGGGGGCCACAGCAGAAGCAUUCACGUCGCAGCCCCUGUCAGUUCCUGGUGAAUCUGCGAAUUCUGCUGUAUAUCUC [G24A A47U U49C], the figure is 0.35.
